# About 7,600 (2.4%) of roughly 320,000 compounds were called active. This list was built around the results that the source calls inconclusive (neither active nor inactive); the mix of calls is not that of the screen. Calls come from the whole dose curve; as a rule, active = well fitted activation curve with a large enough effect; inconclusive = small, poorly fitted or top-dose-only effect; inactive = no such curve, though single readings can be large or run the other way. Potencies of inconclusive entries are left out as doubtful fits.
# Test: qHTS Assay for NPC1 Promoter Activators; note: nearly all actives have a fitted effect of over 60% in size;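 for activation: reporter is driven by a mutant NPC1 promoter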
# Settings: Huh7 NPC1 promoter luciferase reporter, 24 h; series mostly up to 9.22 µM
# How it was run: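 NPC1 promoter–luciferase Huh7 cells; 24 h compound; luminescence.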
# Potency is the fitted concentration of half-maximal effect; tags give direction and shape of the fitted curve.
row,SMILES,Potency
1,COc1cc(/C=N/Nc2nn3cnnc3c3ccccc23)cc(OC)c1OC,"inconclusive [activator, partial curve]"
2,Fc1cccc(CSc2ccc(-c3ccco3)nn2)c1,"inconclusive [activator, single point]"
3,COc1ccccc1NC(=O)c1ccc2nsnc2c1,"inconclusive [activator, single point]"
4,Fc1ccc(COc2ccc(Br)cc2CNCc2ccncc2)cc1,inactive
5,COc1ccc(/C=C/c2nc(-c3ccccc3O)n[nH]2)cc1OC,"inconclusive [activator, single point]"
6,Cc1cc(=O)[nH]c2nnc(-c3ccc(Br)cc3)n12,active: 2820 nM
7,CCOC(=O)c1cccc(Nc2nc(C)cc(C)n2)c1,"inconclusive [activator, partial curve]"
8,Cc1ccc(Nc2nc(COC(=O)COc3ccc(C=O)cc3)cs2)cc1,"inconclusive [activator, partial curve]"
9,CCOc1ccc(Nc2oc(-c3cccc(Cl)c3)nc2C#N)cc1,"inconclusive [activator, partial curve]"
10,CNc1oc(-c2cccs2)nc1C#N,inactive
11,O=C(Nc1ccc2c(c1)OCO2)N1CCN(Cc2ccco2)CC1,"inconclusive [activator, full curve]"
12,Cc1cccc(-c2nnc(SCc3ccccc3)o2)c1,"inconclusive [activator, single point]"
13,CC(c1ccccc1)N1C(=O)NC(NC(=O)c2cccnc2)(C(F)(F)F)C1=O (stereo not drawn),inactive
14,COc1ccc(C(=O)NCCn2ccc3ccccc32)cc1,"inconclusive [activator, partial curve]"
15,CN(C)C(=O)c1ccc(-c2cc(C(F)(F)F)nn2C)s1,active: 3550 nM
16,CC12C(=O)N(c3nccs3)C(=O)C1C1C=CC2C1 (stereo not drawn),inactive
17,Nc1cc(C2CCCC2)nn1-c1ccccc1,active: 2240 nM
18,CCOC(=O)c1c(C)n(CC)c2ccc(OC(=O)c3ccc([N+](=O)[O-])cc3)cc12,inactive
19,Cc1ccc(S(=O)(=O)NC2=NCN(C(C)C)CN2)cc1,inactive
20,O=C(Nc1cccc(O)c1)c1ccccc1[N+](=O)[O-],inactive
21,Cc1ccccc1OCC(=O)NC(=S)Nc1ccccc1N1CCN(S(C)(=O)=O)CC1,inactive
22,CN(C)CCCN(C(=O)CCc1ccccc1)c1nc2ccc(Cl)cc2s1,inactive
23,Cc1ccc(NC(=O)c2ccc3c(c2)OCO3)cc1Cl,active: 562 nM
24,Clc1ccccc1/C=N/Nc1cc(N2CCOCC2)ncn1,"inconclusive [activator, single point]"
25,CC1CCN(c2ccc(NC(=O)c3cccnc3)cc2)CC1,"inconclusive [activator, partial curve]"
26,Cc1cc(NCc2ccccn2)n2ncc(-c3ccc(Cl)cc3)c2n1,"inconclusive [activator, partial curve]"
27,COc1ccc(-c2cc(C(=O)N3CCN(c4ccccc4)CC3)no2)cc1,active: 2820 nM

row,SMILES,Potency
1,Cc1ccc(-c2cnc3ccccc3n2)cc1C,"inconclusive [activator, single point]"
2,CCOC(=O)N1N=C(c2ccc(OC)cc2)CC1(O)C(F)(F)F (stereo not drawn),active: 1120 nM
3,Cc1ccc2nc(N3CCOCC3)c(C=O)cc2c1,inactive
4,Cc1ccccc1/C=N/Nc1nc2ccccc2[nH]1,"inconclusive [activator, single point]"
5,Cc1cc(Br)ccc1NS(=O)(=O)c1c(C)[nH]c(=O)[nH]c1=O,inactive
6,COc1ccc(NCCc2ccccn2)cc1,"inconclusive [activator, single point]"
7,N/C(=N\OC(=O)c1ccc([N+](=O)[O-])cc1Cl)c1ccccn1,"inconclusive [activator, partial curve]"
8,Cc1ccc2cc3cc(C(=O)NC4CC4)oc3nc2c1,active: 3980 nM
9,CS(=O)(=O)N1CCc2cc(-c3csc(NC(=O)Cc4ccccc4)n3)ccc21,inactive
10,CC(C)(C)C(=O)Nc1ccc(C(=O)COC(=O)C2CC2)cc1,"inconclusive [activator, partial curve]"
11,COc1ccc(C(=O)O/N=C(\N)c2ccccc2)cc1,active: 501 nM
12,Cc1ccc(C(=O)O/N=C(\N)c2ccccc2)c(Cl)c1,active: 2240 nM
13,COc1ccc(C2=NOC(C(=O)Nc3ccc4c(c3)OCCO4)C2)c(OC)c1 (stereo not drawn),"inconclusive [activator, single point]"
14,O=C(CSc1nnc(-c2ccco2)n1Cc1ccco1)NCc1ccccc1,inactive
15,O=C(Nc1ncc(Cc2ccccc2)s1)c1cccs1,active: 1260 nM
16,CCOc1ccc(NC(=O)c2ccccc2SC)cc1,"inconclusive [activator, partial curve]"
17,COCc1ccc(CN2CCc3c([nH]c4ccccc34)C2C(C)(C)C)o1 (stereo not drawn),"inconclusive [activator, single point]"
18,Cc1ccc(N2C(=O)c3ccc(N)cc3C2=O)cc1C,active: 2510 nM
19,Nc1c(-c2ccc(Cl)cc2)cnc2c(-c3ccc(F)cc3)cnn12,active: 562 nM
20,C=CCNC(=O)/C(=C/c1cccc([N+](=O)[O-])c1)NC(=O)c1ccco1,inactive
21,Cc1cc(C)c2cc(CN(Cc3ccco3)C(=O)NCc3ccccc3)c(=O)[nH]c2c1,inactive
22,COc1ccc(C2Nc3ccccc3C(=O)N2c2ccccc2)cc1CN1CCOCC1 (stereo not drawn),inactive
23,Cc1cccc(NC(=O)c2cnc3sccn3c2=O)c1,active: 891 nM
24,O=C1[C@@H]2[C@H](Cc3ccc(O)cc3)N[C@]3(C(=O)Nc4ccccc43)[C@@H]2C(=O)N1c1ccc(F)cc1,"inconclusive [activator, single point]"
25,O=C(CN1CCN(C(=O)C2CCN(C(=O)/C=C/c3ccccc3)CC2)CC1)Nc1ccccc1Cl,"inconclusive [activator, partial curve]"
26,Cc1cccc(/C(N)=N/OC(=O)Cc2cccs2)c1,"inconclusive [activator, single point]"

# Source: PubChem BioAssay AID485313 (National Center for Advancing Translational Sciences (NCATS), 2010)
